Among all 220,000 compounds or so, about 5,700 (2.6%) were called active. Inconclusive means that the source gave no clear call. Such entries were picked first, then a sample of the others. The call rests on the fitted dose curve; in most records, active means well fitted inhibition curve with a large enough effect; inconclusive means small, poorly fitted or top-dose-only effect; inactive means no such curve, though single readings can be large or run the other way. Where the call is inconclusive, the potency comes from a doubtful curve fit.
molecular target: Lysine-specific demethylase 5B (Homo sapiens) (UniProt Q9UGL1); assay: Primary screen for KDM5B Histone Demethylases FDH-coupled qHTS; settings: FDH-coupled NADH fluorescence (FDH is formaldehyde dehydrogenase); activity change, negative = inhibition: at 57.7 µM (top of the series) unless noted; further: nearly all actives have a fitted effect of over 70% in size; on activity change, negative = inhibition: 0% is about no effect
Sequence of UniProt Q9UGL1 (Q9UGL1 whole entry, looked up, the tested form may be a part): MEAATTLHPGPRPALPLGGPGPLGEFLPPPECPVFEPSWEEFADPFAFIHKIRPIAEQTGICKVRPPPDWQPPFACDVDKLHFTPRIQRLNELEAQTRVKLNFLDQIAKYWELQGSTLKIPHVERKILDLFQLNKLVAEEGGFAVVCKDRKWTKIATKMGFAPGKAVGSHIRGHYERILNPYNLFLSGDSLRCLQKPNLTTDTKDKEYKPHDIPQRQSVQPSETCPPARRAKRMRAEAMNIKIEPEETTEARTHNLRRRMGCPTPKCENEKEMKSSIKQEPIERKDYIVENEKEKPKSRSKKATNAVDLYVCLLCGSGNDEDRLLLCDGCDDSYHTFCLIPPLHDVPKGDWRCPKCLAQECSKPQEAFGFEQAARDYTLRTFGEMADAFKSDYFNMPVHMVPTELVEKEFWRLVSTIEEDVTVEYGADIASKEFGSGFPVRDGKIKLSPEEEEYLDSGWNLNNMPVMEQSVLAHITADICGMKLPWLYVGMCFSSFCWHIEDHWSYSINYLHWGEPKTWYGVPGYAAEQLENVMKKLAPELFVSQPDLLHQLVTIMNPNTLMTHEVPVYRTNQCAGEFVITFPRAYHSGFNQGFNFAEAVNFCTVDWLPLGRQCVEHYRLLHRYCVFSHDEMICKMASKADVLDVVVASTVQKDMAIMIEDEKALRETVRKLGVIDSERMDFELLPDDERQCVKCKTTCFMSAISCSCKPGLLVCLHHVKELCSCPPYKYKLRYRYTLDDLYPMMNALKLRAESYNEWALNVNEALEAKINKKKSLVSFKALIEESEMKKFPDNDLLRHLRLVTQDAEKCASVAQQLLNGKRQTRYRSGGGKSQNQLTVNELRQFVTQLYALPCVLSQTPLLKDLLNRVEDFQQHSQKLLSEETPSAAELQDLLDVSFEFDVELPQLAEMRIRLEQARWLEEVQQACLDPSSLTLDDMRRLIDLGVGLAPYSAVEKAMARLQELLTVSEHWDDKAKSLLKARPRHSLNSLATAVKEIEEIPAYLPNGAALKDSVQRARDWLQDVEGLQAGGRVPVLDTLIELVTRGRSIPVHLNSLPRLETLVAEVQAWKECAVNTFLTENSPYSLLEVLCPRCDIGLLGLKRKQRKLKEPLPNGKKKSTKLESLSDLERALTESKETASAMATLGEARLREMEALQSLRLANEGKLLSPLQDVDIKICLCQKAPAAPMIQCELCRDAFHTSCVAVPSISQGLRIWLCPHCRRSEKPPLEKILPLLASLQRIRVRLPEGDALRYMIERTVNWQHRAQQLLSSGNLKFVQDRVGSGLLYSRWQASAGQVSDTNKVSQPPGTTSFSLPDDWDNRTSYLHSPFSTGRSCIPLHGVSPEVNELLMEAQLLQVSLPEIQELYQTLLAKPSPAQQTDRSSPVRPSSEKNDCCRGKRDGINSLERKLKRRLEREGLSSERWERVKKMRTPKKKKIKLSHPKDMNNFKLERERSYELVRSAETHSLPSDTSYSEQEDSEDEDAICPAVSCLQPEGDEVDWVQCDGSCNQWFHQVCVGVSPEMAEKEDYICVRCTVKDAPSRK
How it was run: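 Inhibition is measured as reduced NADH fluorescence generation from FDH coupling to formaldehyde release. Truncated KDM5BΔAP at 200 nM final acts on H3K4me3 peptide (12.5 µM in substrate mix) in pH 7.5 HEPES buffer with Tween-20, 30 min, room temperature.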
Potency means the concentration at half of the fitted maximal effect; tags describe the fitted curve by direction and shape.

Question: Which activity change, negative = inhibition does the source give for `COc1cc(-c2noc(-c3cc4cccc(C)c4oc3=O)n2)cc(OC)c1OC` here?
Answer: inconclusive: -38.8% [inhibitor]

Question: How did the Potency turn out when `CCNC(=O)c1cccnc1OC1CCN(C(=O)CC2CCCCC2)C1` (stereo not given) was run?
Answer: inconclusive: 11.2 µM [inhibitor, partial curve]

Question: With `Cn1c(COc2ccc(Cl)cc2)nnc1SCCn1cccn1` as the molecule, how does the “activity change, negative = inhibition” value read?
Answer: inactive: 20%

Question: `CCCSC1=NC2(CCN(C(=O)NC3CCCCC3)CC2)N=C1c1ccc(OC)cc1` was tested. Which activity change, negative = inhibition did it give?
Answer: inconclusive: -57.2% [inhibitor] [at 11.5 µM]

Question: Which Potency does the source give for `Cc1ccc2c(c1)C(C)(C)C1(/C=C/c3ccc(Cl)cc3)NC(=O)CN21` (stereo not given) here?
Answer: inconclusive: 39.8 µM [inhibitor, single point]

Question: `CC(C)(C)c1ccc(CCC(=O)NC(C(N)=O)c2ccccc2)cc1` (stereo not given) was tested. Which “activity change, negative = inhibition” value did it give?
Answer: inactive: 9.4%

Question: `CCN1c2cc(C(=O)Nc3cc(OC)ccc3OC)ccc2C(=O)N2CCCCCC21` (stereo not given) was tested. Which Potency did it give?
Answer: inconclusive: 31.6 µM [inhibitor, partial curve, poor fit]

Question: `COc1ccc(-c2ccc3ncc(Nc4ccncc4)n3n2)cn1` was tested. Which Potency did it give?
Answer: inconclusive: 28.2 µM [inhibitor, single point]

Question: For `Cc1ccc2nsnc2c1S(=O)(=O)Nc1ccccc1C(=O)O`, which Potency is on record?
Answer: inconclusive: 25.1 µM [inhibitor, partial curve, poor fit]

Question: How did the Potency turn out when `COc1ccc(NC(=O)C(C)Oc2cccc(C)c2C)c2cccnc12` (stereo not given) was run?
Answer: inconclusive: 39.8 µM [inhibitor, single point]

Question: For `O=C(NCc1ccccc1Cl)c1ccc2c(c1)ncn2-c1cccc(F)c1`, which Potency is on record?
Answer: inconclusive: 35.5 µM [inhibitor, single point]

Question: With `COc1cc2c(cc1OC)-c1c(c(C(=O)NCCN3CCOCC3)nn1-c1cccc(Cl)c1)C2` as the molecule, how does the Potency read?
Answer: inconclusive: 39.8 µM [inhibitor, single point]

Question: How did the Potency turn out when `O=C(CN1c2cccc3cccc(c23)S1(=O)=O)Nc1cccc(S(=O)(=O)N2CCOCC2)c1` was run?
Answer: inconclusive: 20 µM [inhibitor, partial curve, poor fit]

Question: `CCN1c2cc(C(=O)Nc3ccc(F)cc3F)ccc2C(=O)N2CCCCCC21` (stereo not given) was tested. Which Potency did it give?
Answer: inconclusive: 22.4 µM [inhibitor, partial curve, poor fit]

Question: For `CC(C)Cc1cc(C[C@@H]2C[C@H](NC(=O)C3CCC3)C2(C)C)no1`, which “activity change, negative = inhibition” value is on record?
Answer: inactive: -23.7% [at 86.2 µM]

Question: With `COc1ccc(NC(=O)Nc2cccc(-c3noc(C)n3)c2)cc1` as the molecule, how does the Potency read?
Answer: inconclusive: 22.4 µM [inhibitor, single point]

Question: With `COCCn1c(CNC(=O)c2ccccc2C)nc2cccnc21` as the molecule, how does the Potency read?
Answer: inconclusive: 25.1 µM [inhibitor, single point]

Question: For `Cc1ccc(CNC(=O)C2CCCN(c3nc4ccccc4n4cccc34)C2)cc1` (stereo not given), which Potency is on record?
Answer: inconclusive: 28.2 µM [inhibitor, partial curve, poor fit]

Question: For `Cn1ccc2c(C(=O)N3CCC(C(N)=O)CC3)cccc21`, which Potency is on record?
Answer: inconclusive: 39.8 µM [inhibitor, single point]

Question: How did the “activity change, negative = inhibition” value turn out when `Cc1noc([C@@H]2CN(Cc3cccc(F)c3)C[C@H]2CO)n1` was run?
Answer: inactive: -2.83%

Question: Which “activity change, negative = inhibition” value does the source give for `COc1ccc(C2=NOC(Cc3cc(OC)c4c(c3OC)OCO4)C2)cc1` (stereo not given) here?
Answer: inactive: -8.86%

Question: For `CN(C)c1cccc(C(=O)N2CCCC(n3cc(-c4nc(-c5ccccc5)no4)nn3)C2)c1` (stereo not given), which Potency is on record?
Answer: inconclusive: 39.8 µM [inhibitor, single point]

Question: For `FC1(F)CN[C@H](c2nnc(C3CC3)o2)C1`, which Potency is on record?
Answer: inconclusive: 10 µM [inhibitor, partial curve, poor fit]

Question: Which Potency does the source give for `CCc1cc(NCCS(=O)(=O)CC)n2nccc2n1` here?
Answer: inconclusive: 6.31 µM [inhibitor, single point]

Question: `CCN(CC)CC1CCN(C(=O)c2cc(=O)[nH]c3ccccc23)CC1` was tested. Which Potency did it give?
Answer: inconclusive: 22.4 µM [inhibitor, single point]

Question: Which “activity change, negative = inhibition” value does the source give for `O=C(c1cccc(Cl)c1)N1CCC(N2CC3CCCN3C2=O)CC1` (stereo not given) here?
Answer: inactive: 6.05%

Question: How did the Potency turn out when `C=CCNc1nc(C(=O)OCC(=O)c2cc(C)n(C)c2C)cs1` was run?
Answer: inconclusive: 20 µM [inhibitor, partial curve, poor fit]

Question: `COC[C@@H]1CN(Cc2ccc(C)cn2)C[C@H]1C(=O)NC1CC1` was tested. Which Potency did it give?
Answer: inconclusive: 2.51 µM [inhibitor, full curve]

Question: `COc1ccc(/C=C/c2nc(C#N)c(N3CCN(C(C)=O)CC3)o2)cc1` was tested. Which Potency did it give?
Answer: inconclusive: 31.6 µM [inhibitor, partial curve, poor fit]

Question: With `Cn1cccc1C(=O)N[C@@H]1CN(c2ncccn2)C[C@H]1CO` as the molecule, how does the Potency read?
Answer: inconclusive: 17.8 µM [inhibitor, partial curve]

Question: How did the Potency turn out when `Cc1c(C)c2ccc(OCC(=O)NCCCN3CCCC3=O)cc2oc1=O` was run?
Answer: inconclusive: 22.4 µM [inhibitor, partial curve, poor fit]

Question: For `Cc1[nH]c2ccccc2c1C(=O)C(C)Sc1nnc(C2CC2)o1` (stereo not given), which “activity change, negative = inhibition” value is on record?
Answer: inactive: 1.67%

Question: With `CCN1C(=O)C2(CCN(S(=O)(=O)c3ccc(C)c(F)c3)CC2)c2ccccc21` as the molecule, how does the “activity change, negative = inhibition” value read?
Answer: inactive: 15.4%

Question: How did the Potency turn out when `O=C(NC1CCCCC1)N1CCCC1c1nnc2n1CCNC2` (stereo not given) was run?
Answer: inconclusive: 50.1 µM [inhibitor, partial curve, poor fit]

Question: `CCc1ccc(NCc2cc3cc4c(cc3n(CC(=O)Nc3ccc(OC)cc3)c2=O)OCO4)cc1` was tested. Which Potency did it give?
Answer: inconclusive: 25.1 µM [inhibitor, single point]

Question: Which Potency does the source give for `COc1ccccc1/C=C1\Oc2cc(OC(=O)N3CCOCC3)ccc2C1=O` here?
Answer: inconclusive: 39.8 µM [inhibitor, single point]

Question: Which Potency does the source give for `O=C(NCCn1ccn2nc(-c3ccc(F)cc3)cc2c1=O)c1ccsc1` here?
Answer: inconclusive: 25.1 µM [inhibitor, single point]

Question: `CC(C)c1ccc(N2C(=O)[C@@H]3C[C@@H](NC(=O)C4CCN(c5nccc(C(F)(F)F)n5)CC4)CCN3C2=O)cc1` was tested. Which Potency did it give?
Answer: active: 28.2 µM

Question: `Cc1cc(C)c2cc(C(=O)N3CCC(Cc4ccccc4)CC3)[nH]c2c1` was tested. Which Potency did it give?
Answer: inconclusive: 31.6 µM [inhibitor, single point]

Question: Which “activity change, negative = inhibition” value does the source give for `Cc1[nH]n(-c2ccc(F)cc2)c(=O)c1CCC(=O)Nc1ccc(C#N)cc1` here?
Answer: inactive: -14.1%

Question: `CCCOc1ccc(CNC(=O)C(C)C2CCOCC2)cc1` (stereo not given) was tested. Which Potency did it give?
Answer: inconclusive: 35.5 µM [inhibitor, single point]

Question: With `O=[N+]([O-])c1c(Nc2ccccc2)cc(Cl)c2nonc12` as the molecule, how does the Potency read?
Answer: inconclusive: 17.8 µM [inhibitor, partial curve, poor fit]

Question: Which Potency does the source give for `C=CCN(C)C(=O)C[C@@H]1c2nc(NC(=O)c3cccc(F)c3)sc2C[C@@H]2[C@](C)(CO)[C@H](O)CC[C@]21C` here?
Answer: inconclusive: 35.5 µM [inhibitor, single point]

Question: Which Potency does the source give for `Cc1cc(C)n2c(C(=O)N[C@@H]3COCC[C@@H]3OCc3ccccc3)nnc2n1` here?
Answer: inconclusive: 11.2 µM [inhibitor, partial curve]

Question: For `CC(C)Cn1c(SCc2cc(=O)n3[nH]cc(C#N)c3n2)nnc1-c1ccccc1F`, which Potency is on record?
Answer: inconclusive: 31.6 µM [inhibitor, partial curve, poor fit]

Question: For `O=C1[C@@H]2C[C@@H](CN2Cc2ccnc3ccccc23)Oc2ccccc2N1CC1CC1`, which Potency is on record?
Answer: active: 35.5 µM

Question: `CSC1=N/C(=C\c2ccco2)C(=O)S1` was tested. Which Potency did it give?
Answer: inconclusive: 22.4 µM [inhibitor, partial curve, poor fit]

Question: How did the “activity change, negative = inhibition” value turn out when `Cc1ccc(S(=O)(=O)N(CC(=O)N2CCCC2)c2cccc(Cl)c2)cc1` was run?
Answer: inactive: 6.39%

Question: With `CN(C)C(=S)SCCCCC#N` as the molecule, how does the “activity change, negative = inhibition” value read?
Answer: inactive: 14.8%

Question: With `CSc1ccc(-c2ccc3c(c2)C(=O)N2CCN(C(=O)C4CCCCC4)C[C@@H]2C(=O)N3)cc1` as the molecule, how does the Potency read?
Answer: active: 28.2 µM

Question: For `O=C1c2cnc(-c3ccncc3)nc2OCCN1c1ccccc1`, which Potency is on record?
Answer: inconclusive: 11.2 µM [inhibitor, single point]

Question: How did the Potency turn out when `CC(=O)N1CCC(C2CCN(Cc3cccc(C)c3)C2)CC1` (stereo not given) was run?
Answer: inconclusive: 20 µM [inhibitor, partial curve, poor fit]

Question: `c1ccc(COc2ccc(Oc3cc(-c4nc5ccccc5s4)c4ccccc4n3)cc2)cc1` was tested. Which “activity change, negative = inhibition” value did it give?
Answer: inactive: 0.538%

Question: For `FC(F)n1c(CSc2nnc3c(Cl)cc(C(F)(F)F)cn23)nc2ccccc21`, which Potency is on record?
Answer: inconclusive: 39.8 µM [inhibitor, single point]

Question: Which Potency does the source give for `c1ccc2c(N3CCN(Cc4cc5n(n4)CCNC5)CC3)nsc2c1` here?
Answer: inconclusive: 17.8 µM [inhibitor, single point]

Question: How did the Potency turn out when `COc1ccc2c(c1)c1c(c(=O)n(Cc3ccccc3)c(=O)n1Cc1ccccc1)n2C` was run?
Answer: inconclusive: 14.1 µM [inhibitor, partial curve, poor fit]

Question: With `Cc1cccc(S(=O)(=O)N2CCN(C3CCN(Cc4ccccn4)C3=O)CC2)c1` (stereo not given) as the molecule, how does the “activity change, negative = inhibition” value read?
Answer: inactive: -15.3%

Question: `O=C(Cc1ccc(-c2ccccc2)cc1)N1CCN(S(=O)(=O)c2ccc3ccccc3c2)CC1` was tested. Which Potency did it give?
Answer: inconclusive: 39.8 µM [inhibitor, single point]

Question: `CC(=O)N1CCOc2cc(S(=O)(=O)Nc3cc(C(F)(F)F)ccc3Cl)c(C)cc21` was tested. Which Potency did it give?
Answer: inconclusive: 17.8 µM [inhibitor, partial curve, poor fit]

Question: `COc1cccc(CNCC(c2ccccc2)c2c[nH]c3ccccc23)c1` (stereo not given) was tested. Which Potency did it give?
Answer: inconclusive: 25.1 µM [inhibitor, partial curve, poor fit]

Question: `COc1cc(NC(=O)c2cc3n(n2)CC(c2ccc4c(c2)OCO4)OC3)c(OC)cc1Cl` (stereo not given) was tested. Which “activity change, negative = inhibition” value did it give?
Answer: inactive: 378%

Question: How did the “activity change, negative = inhibition” value turn out when `O=S(=O)(Cc1ccc(F)cc1)Nc1nc2c(s1)CCCC2` was run?
Answer: inactive: 18%

Question: For `COc1nc2ccccc2nc1N1CCC(C(=O)Nc2ccc(Cl)cc2C)CC1`, which “activity change, negative = inhibition” value is on record?
Answer: inactive: -0.546%

Question: `COc1ccc(CN2CCc3nc(C(=O)Nc4ccccc4)oc3CC2)cc1` was tested. Which Potency did it give?
Answer: inconclusive: 25.1 µM [inhibitor, partial curve]

Question: For `CC(C)NS(=O)(=O)c1cccc(C(=O)OCc2nc3ccccc3o2)c1`, which Potency is on record?
Answer: inconclusive: 22.4 µM [inhibitor, partial curve, poor fit]
